The values that follow come from PMC4336329 (PLoS ONE, 2015).

The structures appear in SMILES notation. Hit rate of the full screen: of about 310,000 compounds, about 2,200 (0.71%) showed an effect of 50% or more. The effect is printed as a negative number. This is one part of the list.

Chain of human ether-à-go-go-related gene (hERG) potassium channel (Q12809 whole entry, looked up): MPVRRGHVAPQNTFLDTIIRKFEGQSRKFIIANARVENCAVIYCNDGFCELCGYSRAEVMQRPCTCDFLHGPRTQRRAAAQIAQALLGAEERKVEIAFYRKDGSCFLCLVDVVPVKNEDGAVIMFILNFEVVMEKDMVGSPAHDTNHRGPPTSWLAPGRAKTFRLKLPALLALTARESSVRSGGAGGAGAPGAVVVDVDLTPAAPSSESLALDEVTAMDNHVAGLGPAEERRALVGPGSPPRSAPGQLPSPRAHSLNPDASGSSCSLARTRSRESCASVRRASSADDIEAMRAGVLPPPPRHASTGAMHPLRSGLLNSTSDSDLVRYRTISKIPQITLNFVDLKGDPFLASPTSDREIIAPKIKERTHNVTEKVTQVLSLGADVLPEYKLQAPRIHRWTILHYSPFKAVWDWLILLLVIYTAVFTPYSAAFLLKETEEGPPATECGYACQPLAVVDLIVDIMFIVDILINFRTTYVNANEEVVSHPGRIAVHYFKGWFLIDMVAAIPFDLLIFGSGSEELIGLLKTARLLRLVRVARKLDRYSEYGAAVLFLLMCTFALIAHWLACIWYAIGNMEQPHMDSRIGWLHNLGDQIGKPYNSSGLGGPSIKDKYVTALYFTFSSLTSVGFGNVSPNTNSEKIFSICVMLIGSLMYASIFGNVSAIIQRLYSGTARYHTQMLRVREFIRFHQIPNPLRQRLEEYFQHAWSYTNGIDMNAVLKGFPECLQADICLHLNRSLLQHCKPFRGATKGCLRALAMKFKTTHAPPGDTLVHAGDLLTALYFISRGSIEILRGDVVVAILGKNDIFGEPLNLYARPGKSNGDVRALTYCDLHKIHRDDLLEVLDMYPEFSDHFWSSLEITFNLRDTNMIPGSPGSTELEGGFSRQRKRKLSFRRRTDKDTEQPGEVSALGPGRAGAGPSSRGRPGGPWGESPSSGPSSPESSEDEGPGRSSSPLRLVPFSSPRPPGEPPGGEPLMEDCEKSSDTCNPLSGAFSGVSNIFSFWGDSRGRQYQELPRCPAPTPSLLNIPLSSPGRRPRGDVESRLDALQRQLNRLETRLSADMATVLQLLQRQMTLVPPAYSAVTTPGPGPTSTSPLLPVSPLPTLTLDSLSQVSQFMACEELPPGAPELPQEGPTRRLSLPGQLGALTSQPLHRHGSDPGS

The experiment has as its target human ether-à-go-go-related gene (hERG) potassium channel (human, UniProt Q12809). In words: primary screen, population patch clamp on CHO cells stably expressing hERG.
In the case of `CC(C)(C)NC(=O)c1ccc2c(c1)C1C3CCC(C3)C1C(c1ccccc1)N2` (centres unmarked), the “hERG current change (%, negative = inhibition) at 1uM” value came out at 8.02%.
On to `O=[N+]([O-])c1ccc(Cl)c(S(=O)(=O)Nc2cccc(-c3ccc(N4CCCC4)nn3)c2)c1`, for which the “hERG current change (%, negative = inhibition) at 1uM” value worked out at 10.8%.
In the case of `Cc1ccc(NC(=O)C2Oc3ccccc3OC2C)cc1` (centres unmarked) it was 13%.
Turning to `O=C(c1ccc([N+](=O)[O-])s1)N1CCc2ccccc21`, the “hERG current change (%, negative = inhibition) at 1uM” value came out at 18.7%.
For the compound `CCc1noc(C)c1C(=O)Nc1nc2c(F)cc(F)cc2s1`, the “hERG current change (%, negative = inhibition) at 1uM” value was found to be 13.1%.
As to `O=C(COc1ccccc1)Nc1ccncc1Cl`, the “hERG current change (%, negative = inhibition) at 1uM” value is listed as 6.36%.
In the case of `Cn1c(-c2sc3cc(C(F)(F)F)cnc3c2-c2ccccc2)n[nH]c1=S` it was 15.6%; in that of `O=C1Nc2cc(C(=O)NCC3CCCO3)ccc2S/C1=C/c1ccccc1F` (centres unmarked), 15.1%.
Under `Cc1cc(C(=O)CSc2nc3ccccc3c(=O)[nH]2)c(C)n1C` stands 3.95%.
Take `Cc1ccccc1NCC(=O)N/N=C/c1c(C)c(C(=O)c2ccc(Cl)cc2)n2ccccc12`: the “hERG current change (%, negative = inhibition) at 1uM” value was -0.586%.
Consider `COc1ccc(N=N/C(=C\O)C(=O)c2cccs2)cc1`, for which the “hERG current change (%, negative = inhibition) at 1uM” value is recorded as 18.7%.
For `CC(=O)c1ccc(NC(=O)CSC(=S)N2CCCC2)cc1`, the “hERG current change (%, negative = inhibition) at 1uM” value was determined as 5.67%.
As to `CC(=O)Nc1ccc(C2=CC(=O)CC(C)(C)C2)cc1`, the “hERG current change (%, negative = inhibition) at 1uM” value is 13.3%.
In the case of `COc1ccccc1C1CC(c2ccco2)=NN1c1ccccc1` (centres unmarked) it was 14.2%; in that of `CN(C)CCN=Cc1c(O)n(CCC2=CCCCC2)c(=O)[nH]c1=O`, -1.37%.
For `CN(C)c1nc(N(C)C)nc(N2CC(CCl)OC2=N)n1` (centres unmarked), the “hERG current change (%, negative = inhibition) at 1uM” value was determined as 2.83%.
Turning to `FC(F)Oc1ccc(NC(=S)NCc2cccnc2)cc1`, the “hERG current change (%, negative = inhibition) at 1uM” value was 6.01%.
For `O=C(N[C@@H]1CCC(=O)N(CC[C@H](Sc2ccc(Br)cc2)c2ccccc2)CC1)OCc1ccccc1`, the “hERG current change (%, negative = inhibition) at 1uM” value is 15.5%.
Under `CCSc1nc2ccccc2n1S(=O)(=O)c1ccccc1` stands 12.1%; under `Cc1ccccc1CS(=O)(=O)Cc1ccc(C(=O)NCc2cccnc2)o1`, 14.1%; under `Cc1cccc(N(Cc2ccccc2)C(=O)c2ccc(F)c(S(=O)(=O)N3CCOCC3)c2)c1`, -10.3%.
As for `CC1(OC(=O)CCc2ccccc2)C(=O)C=C2C=C(c3ccsc3)OC=C2C1=O` (centres unmarked), the “hERG current change (%, negative = inhibition) at 1uM” value amounted to 5.48%.
In the case of `COc1ccc(-c2nnc(NC(=O)C3CCCO3)s2)cc1` (centres unmarked), the “hERG current change (%, negative = inhibition) at 1uM” value stood at 12.9%.
Consider `O=C(CSc1nnc(-c2ccccc2Br)o1)Nc1nncs1`, for which the “hERG current change (%, negative = inhibition) at 1uM” value is -63.5%.
In the case of `COc1ccccc1C1CCN(C(=O)c2ccccc2)CC1` it was 11.9%; in that of `O=C(Nc1ccccc1)NN(C(=O)CCl)c1ccccc1`, 20.6%; in that of `CCC(C)OC(=O)c1cc(C)nc2c(Br)cc(Br)cc12` (centres unmarked), 8.48%.
`CCNc1nc(C#N)nc2c1ncn2-c1cc(F)cc(F)c1`: the “hERG current change (%, negative = inhibition) at 1uM” value is listed as 14.8%.
Turning to `Cc1n[nH]c(C)c1S(=O)(=O)Nc1ccc2c(c1)OCCO2`, the “hERG current change (%, negative = inhibition) at 1uM” value is listed as 8.55%.
In the case of `CCN(CC)CCNC(=O)c1ccc(Sc2ccc(C)cc2)c(NC(C)=O)c1`, the “hERG current change (%, negative = inhibition) at 1uM” value is reported as -4.4%.
For `COc1ccc(C(=O)Nc2ccc(Cl)cc2C(=O)NCc2ccco2)cc1`, the “hERG current change (%, negative = inhibition) at 1uM” value is on record as -3.96%.
As for `O=C(NN1C(=O)c2ccccc2C1=O)c1ccc2c(c1)C(=O)N(CC1CCCO1)C2=O` (centres unmarked), the “hERG current change (%, negative = inhibition) at 1uM” value worked out at 12.3%.
In the case of `Cc1cc(C)c2c(CC(=O)NN(C)C)coc2c1` it was 3.51%; in that of `COc1ccc(-n2cnc3cc(C(=O)NCC4CCCO4)ccc32)cc1` (centres unmarked), -6%.
Regarding `CCOC(=O)COc1cc(O)c2c(=O)cc(-c3ccccc3)oc2c1`, the “hERG current change (%, negative = inhibition) at 1uM” value is reported as 4.41%.
Under `COC(=O)[C@]1(Cc2ccccc2)N[C@H](c2ccc(-c3cccc(Cl)c3)cc2)[C@@H]2C(=O)N(C)C(=O)[C@@H]21.O=C(O)C(F)(F)F` stands 4.63%.
As to `O=C(CCNC(=O)c1ccco1)Nc1ccc(OC(F)F)cc1`, the “hERG current change (%, negative = inhibition) at 1uM” value is listed as -1.99%.
In the case of `O=C(COC(=O)c1ccccc1NCCO)NCC1CCCCC1`, the “hERG current change (%, negative = inhibition) at 1uM” value is given as 9.32%.
On to `O=C(NCC1CCN(S(=O)(=O)c2ccccc2)CC1)Nc1ccc(F)cc1`, for which the “hERG current change (%, negative = inhibition) at 1uM” value turned out to be 5.34%.
As to `Cc1cc(C)cc(OCC(O)CN2CCC(CN3C(=O)c4cccc5cccc(c45)C3=O)CC2)c1.Cl` (centres unmarked), the “hERG current change (%, negative = inhibition) at 1uM” value is reported as -41.7%.
Take `CCc1cc(-c2n[nH]c(=S)n2-c2ccccc2C)cs1`: the “hERG current change (%, negative = inhibition) at 1uM” value was -9.81%.
`Cc1ccc(S(=O)(=O)N2CCCCC2)cc1NC(=O)COC(=O)Cc1cccc(C(F)(F)F)c1`: the “hERG current change (%, negative = inhibition) at 1uM” value is 9.01%.
Consider `CCC(=O)Nc1cc(C(=O)O)ccc1S(=O)(=O)c1ccc(C)cc1`, for which the “hERG current change (%, negative = inhibition) at 1uM” value worked out at 9.77%.
In the case of `CCOc1cc(/C=C/c2nc3ccccc3c(=O)[nH]2)ccc1O` it was 14.4%.
